Data on 85 molecules can be found in ChEMBL document CHEMBL4888484, “Replenishing the malaria drug discovery pipeline: Screening and hit evaluation of the MMV Hit Generation Library 1 (HGL1) against asexual blood stage Plasmodium falciparum ,using a nano luciferase reporter read-out” (2022).

Among all 150,000 compounds or so, about 540 (0.36%) showed an effect of 50% or more. The list shows a part of the results.

The test system of this test is Plasmodium falciparum. Nature of the test: Primary screen in NF54 nanoGlo assay, in single point, at 2uM, 72h; a lower Z score goes with more inhibition. Type of test: functional, Erythrocyte. As to conditions: timepoint 72 hour.
With `O=C(NCc1ccccc1OC1CCC1)c1ccc2nncn2c1`, the “% Inhibition” value is recorded as -1% and the Z score was 0.11.
Taken in the same sequence, the figures for `COc1ncnc(N)c1CNCC[C@H]1CCCO1` were -5% and 0.72.
With `Cc1cc(C)cc(NC(=O)CN2CCC(C(=O)N3CCn4c3nc3ccccc34)CC2)c1`, the “% Inhibition” value is reported as -13% and the Z score is reported as 1.48.
The like results for `Cc1cc(-c2noc(CNC(=O)CN3CCOC3=O)n2)no1` were, in that order, 11% and -1.36.
The like results for `CC12CCC(C(=O)N(c3cccc(S(=O)(=O)O)c3)C1=O)C2(C)C` (stereo not given) were, in that order, -19% and 2.7.
Regarding `C[C@@H](c1ccncc1)N(C)Cc1cnc2c(-c3ccccc3)cnn2c1`, the “% Inhibition” value is listed as -20% and the Z score was 2.58.
`Cc1cc(COCC(=O)N2CCN(C)c3ccc(Cl)cc32)no1`: the “% Inhibition” value is -5% and the Z score amounted to 0.85.
Turning to `Cc1nnsc1CN1CC[C@](C)(O)[C@H](O)C1`, the “% Inhibition” value is listed as -7% and the Z score is reported as 1.37.
Taken in the same sequence, the figures for `CC(C)(C)c1cc2n(n1)C[C@@](C)(C(=O)NC1CCCCCCC1)N(c1ccc(F)cc1)C2=O` were -13% and 2.04.
Taken in the same sequence, the figures for `N[C@@H](C(=O)NCc1cc2n(n1)CCN(C1CCCCC1)C2)c1ccccc1` were -8% and 1.48.
The like results for `Cc1n[nH]c(C)c1CCN(C)c1cc([C@H]2CCOC2)nc(N2CC(O)C2)n1` were, in that order, -2% and 0.24.
With `CN(C)c1cccc(CN2CCCc3c(cnn3C)C2)c1`, the “% Inhibition” value was -6% and the Z score turned out to be 1.07.
Taken in the same sequence, the figures for `O=C(c1cc2c(s1)CCCCC2)N1Cc2cnn(CCO)c2C1` were -3% and 0.29.
Taken in the same sequence, the figures for `COC(=O)C1C2CCC(C2)C1NC(=O)c1cccnc1C` (stereo not given) were 0% and -0.02.
For the molecule `COc1ncc(-c2nc(-c3ccccc3Cl)no2)cn1`, the “% Inhibition” value came out at 9% and the Z score is reported as -1.07.
Taken in the same sequence, the figures for `OCCN(Cc1cnc(C2CC2)o1)c1ccccc1` were -5% and 0.49.
Turning to `C#CCOc1ccccc1OC(=O)Cc1c(C)noc1C`, the “% Inhibition” value came to 6% and the Z score is listed as -0.99.
`COC1CCC(NC(=O)C2CCC(=O)N2)C1` (stereo not given): the “% Inhibition” value is -11% and the Z score is 1.25.
On to `Cc1ccc(CN2C[C@@H](F)C[C@H]2C(=O)N2CCCN(C)CC2)cc1`, for which the “% Inhibition” value is -14% and the Z score is 1.8.
Take `Cn1ccnc1CC(NC(=O)N1CCCC(OC2CCC2)C1)c1ccccc1` (stereo not given): the “% Inhibition” value was 4% and the Z score is -0.69.
The like results for `Cc1nc(-c2csc(S(=O)(=O)NCCN3CCCC3)c2)sc1C(=O)N1CCCC1` were, in that order, -14% and 1.97.
The like results for `CCOc1ccc(-n2nc(CO)c(C(=O)NCc3ccccn3)n2)cc1` were, in that order, -17% and 3.08.
Taken in the same sequence, the figures for `Nc1nccnc1C(=O)N(Cc1ccoc1)C1CCCCC1` were 4% and -0.64.
`Cc1ccc(F)cc1NS(=O)(=O)c1cc(-c2nc(C(C)(C)C)cs2)cs1`: the “% Inhibition” value is -10% and the Z score worked out at 1.5.
As to `CN1CC2(CCN(C(=O)Cc3c[nH]c4ccccc34)CC2)C[C@H]1C(=O)N1CCOCC1`, the “% Inhibition” value is on record as 3% and the Z score is listed as -0.5.
The like results for `C[C@H](CCC(=O)N1CCCC1)[C@H]1CC[C@H]2[C@@H]3[C@@H](O)C[C@@H]4C[C@H](O)CC[C@]4(C)[C@H]3CC[C@]12C` were, in that order, -3% and 0.36.
Taken in the same sequence, the figures for `Cc1c(CNC(=O)c2ncoc2C(C)(C)C)cnn1C` were -2% and 0.29.
The like results for `O=C1OC(N2C(=O)CC[C@H]2C(=O)NC2CCS(=O)(=O)C2)c2ccccc21` (stereo not given in full) were, in that order, -4% and 0.72.
Take `Cc1cccc2c1O[C@H](C(=O)N1CC(C)(CC(F)(F)F)C1)C2`: the “% Inhibition” value is listed as -10% and the Z score was found to be 1.31.
Turning to `CCN(CC)[C@@]1(c2nnnn2C2CCCC2)CCN(C(=O)C2(C)CCCCC2)C1`, the “% Inhibition” value is listed as -20% and the Z score was 2.67.
Taken in the same sequence, the figures for `Cc1ccc(CN(CCc2c[nH]c3ccccc23)Cc2nc(C(=O)NCC(C)C)co2)c(C)c1` were -5% and 1.02.
Taken in the same sequence, the figures for `COC(=O)Nc1ccccc1OCc1ncoc1C(C)C` were -4% and 0.52.
The like results for `O=C(Nc1nc2c(s1)CN(Cc1ccccc1)CC2)c1ccc2c(c1)CCCC2` were, in that order, 24% and -2.99.
Take `CCC(CC)C1CC(NCc2csnn2)CCO1` (stereo not given): the “% Inhibition” value is 4% and the Z score was -0.58.
The like results for `CC1CC1C(=O)Nc1nc(-c2cnn(C)c2)ns1` (stereo not given) were, in that order, -5% and 0.8.
With `CCn1cc(CN2CCn3c(C)nnc3[C@@H]2C(=O)N(C)C)c2ccccc21`, the “% Inhibition” value was -4% and the Z score is listed as 0.47.
Take `CC[C@H](N)C(=O)N(C)Cc1cccs1`: the “% Inhibition” value is listed as -13% and the Z score is given as 1.33.
In the case of `Cc1ccc(N(C(=O)c2nc3nc(C)cc(C)n3n2)C2CCCCC2)nc1`, the “% Inhibition” value was -4% and the Z score came out at 0.76.
Taken in the same sequence, the figures for `O=C(NCc1cccc(C(F)(F)F)c1)c1cc(-c2ccccc2Cl)nn1-c1cccc(Cl)c1` were -9% and 1.11.
Taken in the same sequence, the figures for `Cc1cc(NC(=O)CCC(N)=O)cnc1N1CCCC[C@@H]1C` were -3% and 0.36.
The like results for `CC(=O)Nc1ncccc1OC(F)F` were, in that order, -12% and 1.11.
Take `CN1CCC(OCCCNC(=O)Nc2cccc(-c3ccco3)c2)CC1`: the “% Inhibition” value is -3% and the Z score stood at 0.51.
Taken in the same sequence, the figures for `COCC1(C(=O)N2CC[C@@]3(CCCN(Cc4cccc(F)c4F)C3=O)C2)CCC1` were -10% and 1.91.
The like results for `C=C1C2(C(=O)N3CCC(COC)C3)CCC(C2)C1(C)C` (stereo not given) were, in that order, 0% and 0.05.
The like results for `c1nc2cc(-c3noc(-c4cn(C5CCCCC5)nn4)n3)ccc2[nH]1` were, in that order, -13% and 1.69.
Consider `CCn1cc(OCc2ccc(C#N)cc2OC)cn1`, for which the “% Inhibition” value is listed as -14% and the Z score stood at 1.44.
Taken in the same sequence, the figures for `Cc1noc([C@H](C)NC(=O)Nc2cccc(-c3cccs3)c2)n1` were 0% and 0.04.
Regarding `CCc1ccc(CN(C)c2nc(-c3ccccn3)nc3c2CCNC3)nc1`, the “% Inhibition” value was -1% and the Z score is given as 0.12.
Taken in the same sequence, the figures for `O=C(Cc1ccc(F)cc1)Nc1cnoc1` were -19% and 2.98.
Taken in the same sequence, the figures for `CC(C)Cn1cncc1CNCc1ccc(-c2cc[nH]n2)o1` were -5% and 0.89.
The like results for `O=C(O)c1cccnc1CN1CCCC[C@@H]1Cc1cccc(Br)c1` were, in that order, -7% and 1.22.
Regarding `O=C1NCCN1C(=O)Nc1ccc2c(c1)N(C(=O)c1ccccc1)CCC2`, the “% Inhibition” value turned out to be 6% and the Z score is given as -1.1.
The like results for `COCCn1cnnc1[C@H](C)NS(=O)(=O)c1ccc2cc(OC)ccc2c1` were, in that order, -13% and 1.23.
As for `CNC(=O)C(Cc1ccccc1)NCC1CCOc2ccccc21` (stereo not given), the “% Inhibition” value is given as -7% and the Z score came to 0.61.
The like results for `CCc1nc(-c2cccc(NC(=O)c3cccc(N(C)C)c3)c2)no1` were, in that order, -21% and 3.59.
For `COC1CCN(C(=O)NCc2ccc3[nH]cnc3c2)CC1`, the “% Inhibition” value is given as -12% and the Z score was found to be 2.23.
Take `NC(=O)[C@]1(O)CCN(c2ncnc3[nH]ccc23)C1`: the “% Inhibition” value is -7% and the Z score is on record as 0.82.
On to `Cc1ccc(N2CCN(c3nccn4c(=O)n(CC(=O)NCc5ccccc5)nc34)CC2)cc1`, for which the “% Inhibition” value is -10% and the Z score is given as 0.94.
Taken in the same sequence, the figures for `O=C1N(CCCc2ccccc2)CCC[C@@]1(O)CN[C@H]1CC[C@H](O)CC1` were -6% and 0.83.
Taken in the same sequence, the figures for `Cc1noc(-c2ccc3c(c2)OCO3)c1C(=O)NCCC1(C)OCCO1` were 1% and -0.12.
Taken in the same sequence, the figures for `O=S(=O)(c1ccc2c(c1)CCCC2)N1CCC2(CC1)NCCN=C2NC1CCCCC1` were -1% and 0.19.
As for `COCCn1cnc2cc(NC(=O)C3CCCCC3)cc(C(=O)N3CCC(C)CC3)c21`, the “% Inhibition” value is 8% and the Z score is -1.09.
Taken in the same sequence, the figures for `CCN1CCNC(=O)[C@@H]1Cc1nc(CCOC)nn1-c1cccc(Cl)c1` were 2% and -0.29.
Taken in the same sequence, the figures for `CCc1ccc(OCCNC(C)(C)C)cc1` were 4% and -0.52.
Taken in the same sequence, the figures for `COc1ccc(NC(=O)c2ccc3ccccc3n2)cn1` were -16% and 2.92.
Consider `CC(C)n1cnnc1C[C@H]1CCCN(C(=O)Cc2cccs2)C1`, for which the “% Inhibition” value came out at 7% and the Z score is on record as -0.94.
`CCCc1ccc(-c2nc(NC(=O)C3CCOCC3)sc2C)cc1`: the “% Inhibition” value is listed as -4% and the Z score is listed as 0.59.
The like results for `CCO[C@@H](C)c1nccn1Cc1ncccc1C` were, in that order, 7% and -0.98.
Regarding `CC(C)C(=O)N1CCN(C/C=C/c2ccccc2)[C@@H]2CS(=O)(=O)C[C@@H]21`, the “% Inhibition” value is -12% and the Z score is recorded as 1.48.
Taken in the same sequence, the figures for `CCCN(CCC)C(=O)C1CCOCC1` were 8% and -1.46.
Taken in the same sequence, the figures for `CCNC(=O)N1CC(C(=O)NCc2ccccc2)CCC1c1ccc(F)c(C)c1` (stereo not given) were -4% and 0.37.
The like results for `CCC1(CC)CCN(S(=O)(=O)N2CCC[C@@H]2COC)C1` were, in that order, -13% and 1.51.
`COc1cccc(-c2noc(N[C@@H](C)C3(S(C)(=O)=O)CC3)n2)c1`: the “% Inhibition” value is given as -6% and the Z score was found to be 0.55.
On to `Cc1ccc(CN(C)C(=O)c2cc(C3CC3)no2)o1`, for which the “% Inhibition” value is reported as -12% and the Z score is given as 1.74.
The like results for `O=S(=O)(NCCN1CCCC1)c1cnc2ccccc2c1` were, in that order, 2% and -0.17.
Taken in the same sequence, the figures for `CCN(Cc1csc(C)n1)C[C@H]1CCCCO1` were 2% and -0.27.
The like results for `COc1cc(-c2ccccc2CN2CCOCC2)cc(OC)c1OC` were, in that order, 2% and -0.41.
Consider `COc1ccc(CN2CCc3nc(N4CCCC4)ncc3C2)c(OC)c1OC`, for which the “% Inhibition” value came out at 4% and the Z score is recorded as -0.54.
Taken in the same sequence, the figures for `Cc1cnc(C2CCC2)n1CCNC(=O)C1CCCCC1` were -10% and 1.2.
Taken in the same sequence, the figures for `O=C(C1CCCCC1)N1CC(c2nc(-c3ncccn3)no2)C1` were -5% and 1.01.
The like results for `CN1CCCN(C(=O)c2ccc3nc(-c4ccc(F)cc4)cn3c2)CC1` were, in that order, -10% and 0.91.
As for `CC1(C)CCC(CNS(=O)(=O)c2ccco2)CC1`, the “% Inhibition” value is -9% and the Z score is 1.14.
The like results for `CC1CCN(c2nc3c(c(N4CCCC4)n2)CN(C(=O)c2ccc(F)cc2F)CC3)CC1` were, in that order, -8% and 1.11.
The like results for `COc1cccc(-c2n[nH]c3c2CN(Cc2cccc(C)n2)CC3)c1` were, in that order, -9% and 1.66.
Taken in the same sequence, the figures for `Cc1cccc2sc(N3CC[C@@H]4OCC[C@@H]4C3)nc12` were -19% and 1.92.
